# Results reported in article PMC5892938.
# This is one part of the list. At the low end of the ranking the order means little.
# Biological target: GST-SBP-SLBP (stem-loop binding protein) (UniProt Q14493)
# Test: targeted RNA Bind-n-Seq;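 further: DESeq read counts versus GST-SBP nonspecific binding control pulldown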
# Details: RBNS binding buffer: 25 mM Tris pH 7.5, 150 mM KCl, 3 mM MgCl2, 0.1% Tween, 0.5 mg/mL BSA, 1 mM DTT; 27 nM protein, 750 pM RNA pool; temperature not stated; high values mean tight binding
row,Sequence,binding signal (log2 fold change)
1,GGUCACGUCUCAAUCAACUCUAGUCCCAGGGAAAACCCUGGUUUUUUCAACAGCUCGCAGUCAAG,-0.315
2,GGUCACGUCUCAAUCAACUCAUCGCCAGGAGUUUGCUCCUGUAAUUUCAACAGCUCGCAGUCAAG,-0.143
3,GGUCACGUCUCAAUCAACUCAACUUCAGGAGUUUACUCCUGUAAAUUCAACAGCUCGCAGUCAAG,0.141
4,GGUCACGUCUCAAUCAACUCUAUCUCCAGGGAAACCCCUGGCUAUUUCAACAGCUCGCAGUCAAG,0.27
5,GGUCACGUCUCAAUCAACUCUUCUUCAGGAGUUUACUCCUGUUAUGUCAACAGCUCGCAGUCAAG,0.0922
6,GGUCACGUCUCAAUCAACUCAUCUCCCAGGGAAAUCCCUGGCAAUUUCAACAGCUCGCAGUCAAG,0.0538
7,GGUCACGUCUCAAUCAACUCCAUGGAGGGGGGGAAAACCCCUUUACCCUCAUCAUCAACAGCUCGCAGUCAAG,0.0796
8,GGUCACGUCUCAAUCAACUCCUACGAGGGGGGGAAAACCCCUUUACCCUCUUCUUCAACAGCUCGCAGUCAAG,-0.356
9,GGUCACGUCUCAAUCAACUCUUCCGCAGGAGUUUACUCCUGGUAUUUCAACAGCUCGCAGUCAAG,0.0976
10,GGUCACGUCUCAAUCAACUCUAGUCCAGGAGUUUUCUCCUGUAUAUUCAACAGCUCGCAGUCAAG,-0.143
11,GGUCACGUCUCAAUCAACUCUUUCCCCAGGGAAACCCCUGGCAAAUUCAACAGCUCGCAGUCAAG,-0.126
12,GGUCACGUCUCAAUCAACUCAUCGUCAGGAGUUUUCUCCUGCAUACUCAACAGCUCGCAGUCAAG,0.146
13,GGUCACGUCUCAAUCAACUCUAUUUCAGGAGUUUCCUCCUGCUUUCUCAACAGCUCGCAGUCAAG,-0.074
14,GGUCACGUCUCAAUCAACUCAAUCCCCAGGGAAACCCCUGGCUAACUCAACAGCUCGCAGUCAAG,0.0882
15,GGUCACGUCUCAAUCAACUCAUUUUCCAGGGAAAGCCCUGGUAUAUUCAACAGCUCGCAGUCAAG,0.053
16,GGUCACGUCUCAAUCAACUCUUCUCCCAGGGAAAACCCUGGUAAUCUCAACAGCUCGCAGUCAAG,-0.105
17,GGUCACGUCUCAAUCAACUCAUUUCCAGGAGUUUUCUCCUGUUUAUUCAACAGCUCGCAGUCAAG,0.215
18,GGUCACGUCUCAAUCAACUCAUUUUCAGGAGUUUACUCCUGUAAUCUCAACAGCUCGCAGUCAAG,0.238
19,GGUCACGUCUCAAUCAACUCUUCUUCAGGAGUUUUCUCCUGUUUUGUCAACAGCUCGCAGUCAAG,0.1
20,GGUCACGUCUCAAUCAACUCAUCGUCCAGGGAAAACCCUGGUUUUUUCAACAGCUCGCAGUCAAG,0.0579
21,GGUCACGUCUCAAUCAACUCACUAGAGGGGGGGAAAACCCCUUUGCCCUCAUUAUCAACAGCUCGCAGUCAAG,0.0849
22,GGUCACGUCUCAAUCAACUCAAUCCCCAGGGAAAUCCCUGGCUUACUCAACAGCUCGCAGUCAAG,0.371
23,GGUCACGUCUCAAUCAACUCAUUCUCCAGGGAAACCCCUGGUAUAUUCAACAGCUCGCAGUCAAG,-0.194
24,GGUCACGUCUCAAUCAACUCUUCAGAGGGGGGGAAAACCCCUUUACCCUCCACAUCAACAGCUCGCAGUCAAG,0.116
25,GGUCACGUCUCAAUCAACUCCUCAGAGGGGGGGAAAACCCCUUUACCCUCACCAUCAACAGCUCGCAGUCAAG,-0.0838

row,Sequence,binding signal (log2 fold change)
1,GGUCACGUCUCAAUCAACUCAUCCCCAGGAGUUUGCUCCUGCAAUUUCAACAGCUCGCAGUCAAG,0.0952
2,GGUCACGUCUCAAUCAACUCUAUUUCCAGGGAAACCCCUGGCGUAUUCAACAGCUCGCAGUCAAG,-0.0433
3,GGUCACGUCUCAAUCAACUCUUCGUCCAGGGAAAUCCCUGGCUUAUUCAACAGCUCGCAGUCAAG,-0.0273
4,GGUCACGUCUCAAUCAACUCUAUUCCCAGGGAAAUCCCUGGUUAUUUCAACAGCUCGCAGUCAAG,0.0238
5,GGUCACGUCUCAAUCAACUCUAUUCCAGGAGUUUCCUCCUGUAUUUUCAACAGCUCGCAGUCAAG,0.0998
6,GGUCACGUCUCAAUCAACUCAACUCCCAGGGAAAACCCUGGUAUACUCAACAGCUCGCAGUCAAG,0.0561
7,GGUCACGUCUCAAUCAACUCUUUUUCCAGGGAAAGCCCUGGCGUUUUCAACAGCUCGCAGUCAAG,-0.269
8,GGUCACGUCUCAAUCAACUCAUUAGAGGGGGGGAAAACCCCUUUGCCCUCCAUUUCAACAGCUCGCAGUCAAG,-0.35
9,GGUCACGUCUCAAUCAACUCUUCGCCCAGGGAAACCCCUGGUAAAUUCAACAGCUCGCAGUCAAG,-0.365
10,GGUCACGUCUCAAUCAACUCUUUCUCAGGAGUUUACUCCUGUUUAUUCAACAGCUCGCAGUCAAG,-0.203
11,GGUCACGUCUCAAUCAACUCUUUCCCAGGAGUUUACUCCUGUUUUCUCAACAGCUCGCAGUCAAG,0.00522
12,GGUCACGUCUCAAUCAACUCUUCUCCAGGAGUUUCCUCCUGUAUACUCAACAGCUCGCAGUCAAG,0.0827
13,GGUCACGUCUCAAUCAACUCUUCUCCCAGGGAAAGCCCUGGCUUACUCAACAGCUCGCAGUCAAG,-0.114
14,GGUCACGUCUCAAUCAACUCAUUCCCCAGGGAAAGCCCUGGCAUAUUCAACAGCUCGCAGUCAAG,0.17
15,GGUCACGUCUCAAUCAACUCUUCUUCAGGAGUUUUCUCCUGUAAACUCAACAGCUCGCAGUCAAG,0.117
16,GGUCACGUCUCAAUCAACUCAUAAGAGGGGGGGAAAACCCCUUUACCCUCACAAUCAACAGCUCGCAGUCAAG,-0.3
17,GGUCACGUCUCAAUCAACUCUCUCGAGGGGGGGAAAACCCCUUUACCCUCAUCGUCAACAGCUCGCAGUCAAG,-0.0779
18,GGUCACGUCUCAAUCAACUCAAUCCCCAGGGAAAACCCUGGCUAAUUCAACAGCUCGCAGUCAAG,-0.00819
19,GGUCACGUCUCAAUCAACUCUUCCUCCAGGGAAAGCCCUGGCUAUUUCAACAGCUCGCAGUCAAG,-0.0345
20,GGUCACGUCUCAAUCAACUCAGUUUCAGGAGUUUCCUCCUGUUUUUUCAACAGCUCGCAGUCAAG,-0.0191
21,GGUCACGUCUCAAUCAACUCAAUUCCAGGAGUUUUCUCCUGUAAAUUCAACAGCUCGCAGUCAAG,0.0914
22,GGUCACGUCUCAAUCAACUCAUUUUCAGGAGUUUCCUCCUGUUUAUUCAACAGCUCGCAGUCAAG,0.049
23,GGUCACGUCUCAAUCAACUCUUCUUCCAGGGAAAACCCUGGCAAUGUCAACAGCUCGCAGUCAAG,-0.084
24,GGUCACGUCUCAAUCAACUCAUCUCCCAGGGAAAACCCUGGUUAACUCAACAGCUCGCAGUCAAG,0.146
25,GGUCACGUCUCAAUCAACUCUUCCCCAGGAGUUUCCUCCUGCAUUUUCAACAGCUCGCAGUCAAG,0.0449

row,Sequence,binding signal (log2 fold change)
1,GGUCACGUCUCAAUCAACUCUUCCUCAGGAGUUUCCUCCUGUUAUCUCAACAGCUCGCAGUCAAG,0.0172
2,GGUCACGUCUCAAUCAACUCUCAAGAGGGGGGGAAAACCCCUUUGCCCUCAUCGUCAACAGCUCGCAGUCAAG,-0.345
3,GGUCACGUCUCAAUCAACUCUAUCGAGGGGGGGAAAACCCCUUUACCCUCCACAUCAACAGCUCGCAGUCAAG,0.0569
4,GGUCACGUCUCAAUCAACUCAUUCCCCAGGGAAAACCCUGGUUUACUCAACAGCUCGCAGUCAAG,0.0296
5,GGUCACGUCUCAAUCAACUCAUCCCCAGGAGUUUUCUCCUGUUUAGUCAACAGCUCGCAGUCAAG,0.204
6,GGUCACGUCUCAAUCAACUCAUCCCCCAGGGAAAGCCCUGGCUAAUUCAACAGCUCGCAGUCAAG,0.0465
7,GGUCACGUCUCAAUCAACUCAUCUUCCAGGGAAACCCCUGGCUUUCUCAACAGCUCGCAGUCAAG,-0.0234
8,GGUCACGUCUCAAUCAACUCUUUCUCAGGAGUUUUCUCCUGUAUAUUCAACAGCUCGCAGUCAAG,-0.00822
9,GGUCACGUCUCAAUCAACUCUACUUCAGGAGUUUUCUCCUGUAUACUCAACAGCUCGCAGUCAAG,0.105
10,GGUCACGUCUCAAUCAACUCCUUAGAGGGGGGGAAAACCCCUUUACCCUCGUCUUCAACAGCUCGCAGUCAAG,0.105
11,GGUCACGUCUCAAUCAACUCUUUUUCAGGAGUUUACUCCUGCAAUUUCAACAGCUCGCAGUCAAG,-0.0558
12,GGUCACGUCUCAAUCAACUCUACUCCAGGAGUUUUCUCCUGUUUUCUCAACAGCUCGCAGUCAAG,0.107
13,GGUCACGUCUCAAUCAACUCCCCAGAGGGGGGGAAAACCCCUUUACCCUCCACUUCAACAGCUCGCAGUCAAG,-0.35
14,GGUCACGUCUCAAUCAACUCAUUUUCCAGGGAAAGCCCUGGCUUUCUCAACAGCUCGCAGUCAAG,0.0425
15,GGUCACGUCUCAAUCAACUCAUCUCCCAGGGAAAGCCCUGGCUUACUCAACAGCUCGCAGUCAAG,0.0865
16,GGUCACGUCUCAAUCAACUCUAUGGAGGGGGGGAAAACCCCUUUACCCUCAAUUUCAACAGCUCGCAGUCAAG,-0.167
17,GGUCACGUCUCAAUCAACUCAAUCCCAGGAGUUUACUCCUGCUAACUCAACAGCUCGCAGUCAAG,0.206
18,GGUCACGUCUCAAUCAACUCCAAUGAGGGGGGGAAAACCCCUUUACCCUCCAAUUCAACAGCUCGCAGUCAAG,0.00976
19,GGUCACGUCUCAAUCAACUCAUUCCCCAGGGAAAUCCCUGGCUUAUUCAACAGCUCGCAGUCAAG,0.349
20,GGUCACGUCUCAAUCAACUCCUUCGAGGGGGGGAAAACCCCUUUACCCUCUACAUCAACAGCUCGCAGUCAAG,-0.0172
21,GGUCACGUCUCAAUCAACUCAUCCUCAGGAGUUUACUCCUGUUUUCUCAACAGCUCGCAGUCAAG,0.158
22,GGUCACGUCUCAAUCAACUCAUUCUCCAGGGAAACCCCUGGUAUUUUCAACAGCUCGCAGUCAAG,0.09
23,GGUCACGUCUCAAUCAACUCCCAAGAGGGGGGGAAAACCCCUUUACCCUCAUUCUCAACAGCUCGCAGUCAAG,-0.531
24,GGUCACGUCUCAAUCAACUCUAUAGAGGGGGGGAAAACCCCUUUGCCCUCACCUUCAACAGCUCGCAGUCAAG,0.126
